The source gives no read counts; variants with many changes may rest on few reads.
B1: LINE1-mini (parent)
chain: GGCAGAGCUCAACACAGCGUGGCAAAGUGGCUGUGGCUAGACUGCC

Variants of: B1
Assay: self-cleavage, relative activity (ratio to wild type); higher = more cleavage; in vitro, sequencing; the parent is a self-cleaving ribozyme

Variant	self-cleavage
G7U G21C U38C	0.03
G7C C13A G19C U20A	0.06
G7U C13U C31G U32A G33A U38C	0.17
C8A A12C U20C G33U	0.05
G7C U20C A24C C46U	0.02
G7C U9C A14C G21A G27C	0.03
G7C U9A C37U	0.02
G7U U20C C31U G40A	0.03
G7C C18A G19A A25G	0.2
C8A A16C C31G	0.05
C8A A11G C13U C42U C46A	0.04
G7U G19A A41C	0.2
G7C C8G G44U C46U	0.03
G7U A16U C31U U32A U34A G44U	0.08
G7C G27A G29A C31U	0.14
G7C U28C G44U	0.08
C8A A16G G17U U34A C45U	0.11
G7C G35A G44U	0.13
G7C G35U G40C	0.21
G7C U20C G27C U32A	0.01
G7U G17U A39C	0.04
G7C G35U U43A	0.02
G7U G35U C37G	0.04
G7U G27A U32A G40A	0.02

Variant	self-cleavage
C8A A14G G35A	0.34
G7U U34A C42U	0.03
G7C G19U G29U	0.14
G7U A12U G40U C46U	0.23
G7U U28A G30A U32C C45A	0.09
G7C C10A C18G G35C G36A	0.03
G7C G27C G30A	0.22
G7C C31U C46A	0.09
G7U C10A G30C	0.01
G7U G22C C42A	0.2
G7C C8A G17C	0.07
G7C C13A G33C	0.06
G7U A16U A24U A25G C37U G44A	0.07
C8A A14C C15A A26C	0.14
G7C C15U C18G G27C G36C G40U	0.07
C8A A14G G17C A26G	0.06
G7C G22C G30C A39U	0.06
G7U G21A A24C A41U C45G	0
G7U G27A G29A	0.12
G7U C10A A14U C15A G19U C31U	0.03
G7C U9C U20C	0.01
G7C U9A C18U	0.04
G7C U9G G33A	0.2
C8A A12C G21C	0.02

Variant	self-cleavage
G7U A16C G17C G36C	0.05
G7C C10U A16C G30A	0.05
G7C C8G C10A A14C U20A C23U C37G	0.01
G7U C23G A24U U32G G33A G36U C45G	0.1
G7C C15G U43A	0.48
G7U U9C C15G	0.11
G7U G27U C31A	0.06
G7U A16C G21U A25C G33C G36A G40C	0.01
G7U C10G A11U	0.02
G7U C8A A14U G27C	0.14
G7C C8A C18U U28A C31G	0.12
G7C G29U U32G	0.02
G7U A11G G30U	0.02
G7C G19U G22U A39C	0.03
G7C C23U U43A	0.12
G7U U9G C13G A14C C31U	0.01
G7U C18A A41G C42G	0.41
G7U C8G U20C G29A U34G	0.06
G7C C23G A26C C46A	0.05
C8A A14U A39G C42G C46U	0.04
G7U C8U G30U C31U C37G C42A	0.07
G7U U9G A16C C18U U20C C37U	0.08
G7C G21U G29U	0.13
C8A A11G C15A G19A G40A C45G	0.02

Variant	self-cleavage
C8A A11G A12U G19A	0.03
G7U G17U A25G	0.08
G7U C8A C10U G21U C23A	0.05
C8A A14G G27A G33C C42U	0.1
G7C G30A A39U	0.03
G7U A12U A16C G21U G22U C23A U32G	0.01
C8A A11G U20A C23U	0.02
G7C G21A C23A G30A G36A	0.29
G7U C15A C23U A25G G36A C37G A39G	0.03
G7U A11U G29U C46U	0.02
C8A A12G U32A U34A	0.7
G7U C8A C10A G22C C23G	0.03
G7U G17C A24U U34G C42A U43A	0.08
C8A A16G A39C	0.08
G7U C8G G19U G21A C23A A25C G40U	0.05
G7U A16U U43G	0.23
G7C A26C A41U U43G	0.05
G7U U20A G22C A26C	0.03
G7U A25U U38A	0.03
G7U C15U C23G C31A	0.03
C8A A14G A24G	0.64
G7U C10A A25C G35U	0.02
G7C C8A G30C	0.27
G7C C13U C15G G21U A39C G44U	0.05

Variant	self-cleavage
G7U G19A U20C	0.1
G7C G19A C45A	0.02
G7U A11G U20C G33C	0.01
C8A A12G A25U G27A C45U	0.06
G7C G17C C46A	0.05
G7C C10A C23G	0.01
C8A A12C C18G U34G	0.05
G7U C13A G22U C23G G30C	0.1
G7U U34G C46U	0.04
G7U A26G G33A	0.03
G7C C10U A12C U34A	0.01
G7U A12G G27A	0.01
G7C C8A G17U U38C A39C C45U	0.28
G7U C8A C10A G30U U43G	0
G7C U9A C10G U20C C45U	0.02
G7U A12C U20A G21A A25U U28G	0.02
G7U U9G C13A G17U G21U G29C G30C	0.01
G7C C10U A16U A24C G27U G29A G40A	0.01
G7U C10A G21A	0.03
C8A A14G C45G	0.28
G7C C10A G44C	0.01
G7U C13A C15U A41U C42G	0.33
G7C C23U G27A	0.18
G7U U20A C46A	0.03

Variant	self-cleavage
G7C C15G C23U A24G C37U	0.02
G7U A14C C15A G22U C23A	0.02
G7C C8G A14C G17U G19A G36U	0.21
G7U C15A C18U	0.1
G7U A14G C31U G33C G35U C37G U38G	0
G7U A24G A25U	0.09
G7U U28C C31U U32G	0.01
G7U U32A G33A	0.02
G7C G36C U38G G44C	0
G7U C8A G22A G36U C45G	0.58
G7U G17C C31A	0.04
G7U A14C U20A	0.01
C8A A11U C42G	0.01
G7C C13G G19C A39G	0.06
G7C C13A A25U A26G	0.08
G7C A26C G29U	0.03
G7U U9A G21U	0.23
G7C C8G A11U G21A C31A	0.02
G7U G21A G27U	0.08
G7C C10A G21C C37U C45U	0.01
G7C C8A G22A G44C	0.14
G7U A12U C13A G40U	0.03
G7C G36C C37A G40A	0.41
C8A A14G G30C G35A	0.27

Variant	self-cleavage
G7U A16G G35C G44U	0.04
G7C A39G C45A	0.03
G7C A41C U43A	0.25
G7C U20A A25U U28G	0.03
G7U G27U A39U	0.06
G7U G33U A41C	0.28
G7C C10A U34A C42U	0.01
G7U G33U A39C	0.13
G7C U20A A25G G29C	0.02
G7C G19U G40A	0.01
G7U C8G C13U G21U G29U A39G	0.18
G7C U20G C42U	0.05
G7C G30A A41C	0.13
G7U A25C G27C G44A	0.11
G7U U9C U32C G40A	0.01
G7U G17A A26C U34A	0.02
G7C C23U A39U	0.1
G7U C8A A11U C15U	0.01
G7U A14U G30U A39U A41U	0.11
G7U C10A G22U G36C G44U	0.01
C8A A11U C18G G19U G29C	0.03
G7U A14U C15U	0.26
C8A A16G C45A	0.18

Reference: the RNAGym collection of RNA variant scans (doi:10.7554/elife.90254)
